# In all, about 110,000 compounds went through this assay and about 230 (0.21%) showed an effect of 50% or more. Some of the results follow.
# Target: DPAP1 (Plasmodium falciparum, UniProt Q8IIJ9)
# Assay: primary screen, percent inhibition; read by cleavage of a fluorogenic dipeptide substrate; higher = more effect of the substance
# Design: species or system P. falciparum D10 trophozoite lysates; single well
# 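Also: 30 min substrate incubation versus DMSO and 10 µM JCP410 controls.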
# Sequence of DPAP1 (Q8IIJ9 whole entry, looked up): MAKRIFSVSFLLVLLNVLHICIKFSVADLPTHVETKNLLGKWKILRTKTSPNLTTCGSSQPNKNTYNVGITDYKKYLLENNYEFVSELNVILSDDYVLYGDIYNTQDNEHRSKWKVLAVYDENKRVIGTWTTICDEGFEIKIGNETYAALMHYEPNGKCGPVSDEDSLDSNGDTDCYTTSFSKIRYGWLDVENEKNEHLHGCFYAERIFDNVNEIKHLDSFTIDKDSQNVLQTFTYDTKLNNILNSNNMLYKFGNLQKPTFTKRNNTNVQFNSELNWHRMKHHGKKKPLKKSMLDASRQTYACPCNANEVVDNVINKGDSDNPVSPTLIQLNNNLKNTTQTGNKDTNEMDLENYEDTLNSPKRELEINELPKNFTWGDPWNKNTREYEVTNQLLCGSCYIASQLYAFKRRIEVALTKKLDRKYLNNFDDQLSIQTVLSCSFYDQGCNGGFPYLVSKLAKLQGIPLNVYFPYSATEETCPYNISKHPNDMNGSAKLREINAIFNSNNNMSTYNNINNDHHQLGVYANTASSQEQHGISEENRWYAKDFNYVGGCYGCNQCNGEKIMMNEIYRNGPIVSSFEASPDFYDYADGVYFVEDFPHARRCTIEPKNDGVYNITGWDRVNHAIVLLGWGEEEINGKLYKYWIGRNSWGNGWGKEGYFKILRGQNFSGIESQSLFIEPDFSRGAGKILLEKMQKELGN
row,Structure (SMILES),% Inhibition @ 10 uM [%]
1,Brc1cccc(CN2CCN(c3ncccn3)CC2)c1,-0.473
2,COC(=O)c1cc2c(=O)n3cccc(C)c3nc2n(CCc2ccccc2)c1=N,-1.47
3,CC(=O)c1c(C)nc2ccccc2c1O,0.627
4,CCCC1CCc2c(sc(NC(=O)COc3ccccc3C)c2C(N)=O)C1 (stereo not shown),3.56
5,N#Cc1c(NC(=O)/C=C/C(=O)O)sc2c1CCC2,1.67
6,COc1cccc2c(-c3ccccc3)nc(SCC(=O)Nc3ncc(C)s3)nc12,-4.67
7,NC(=O)CSc1nc2c(N)ncnc2n1Cc1ccccc1,-2.21
8,Cc1cc(C)n(-c2nc(-c3ccccc3)nc3c2COC(C)(C)C3)n1,-7.33
9,Cc1ccc(S(=O)(=O)N(CC(=O)NCCO)Cc2ccccc2F)cc1,-3.33
10,Cc1cc(C)cc(NC(=O)CSc2ccccn2)c1,-10.4
11,O=[N+]([O-])c1ccc(O)cc1CN1CCCCCCC1,1.57
12,O=C(Nc1ccc(Cl)cc1)c1cccc(N2C(=O)C3C4C=CC(C5CC45)C3C2=O)c1 (stereo not shown),5.97
13,CCOc1ccccc1CNC(=O)Cn1nc(CC)n2c(cc3sc(C)cc32)c1=O,3.4
14,Cc1ccc(C)c(Cn2c3ccccc3c3cnn(CC(=O)NCCCN4CCCCC4)c(=O)c32)c1,1.8
15,O=c1cccc2n1C[C@H]1C[C@@H]2CN(Cc2ccc(Cl)cc2)C1,1.54
16,CCOc1ccccc1C1C(C#N)=C(N)Oc2[nH]nc(-c3ccccc3)c21 (stereo not shown),10
17,COCC(=O)NCCc1nc2ccccc2[nH]1,7.85
18,N#Cc1c(NC(=O)CSc2ncccn2)oc(-c2ccccc2)c1-c1ccccc1,-3.16
19,O=C(NCCc1ccc(F)cc1)C1CCN(c2cnccn2)CC1,0.758
20,Cc1ccc(C(=O)Nc2cc(C)ccc2C)cc1,-1.22
21,CCc1ccc(-c2cc3c(=O)n(CC(=O)NC(C)CC)nc(C)n3n2)cc1 (stereo not shown),-2.85
22,CCCOc1cccc(C2c3c(oc4cc(C)cc(C)c4c3=O)C(=O)N2CCO)c1 (stereo not shown),6.34
23,Cc1n[nH]c(C)c1CCCCCOc1ccc(Cl)cc1,5.01
24,Cc1nn(C)c(C)c1/C=C1\CCCC2=C1OC(N)=C(C#N)C2c1c(C)nn(C)c1C (stereo not shown),5.52
25,CCCCCCOC(=O)c1c[nH]nc1[N+](=O)[O-],-5.96

row,Structure (SMILES),% Inhibition @ 10 uM [%]
1,CCOc1ccccc1NS(=O)(=O)c1ccc(F)cc1,1.35
2,CC(C)OCCCNC(=O)/C(C#N)=C/c1c(Oc2ccccc2Cl)nc2ccccn2c1=O,1.06
3,Fc1ccc(CN2CCOCC2)cc1F,3.24
4,O=C(CCCN1C(=O)c2cccc3cccc(c23)C1=O)N1CCN(c2cccc(Cl)c2)CC1,1.34
5,O=C(Cn1ncc2c1-c1ccccc1OC2)N1CCC2(CC1)OCCO2,3.32
6,O=C1CCC(=O)N1CN(C(=O)C(F)(F)F)c1ccccc1,-2.68
7,COc1cc(NC(=O)c2ccc(Br)s2)cc(OC)c1,-6.74
8,CC(C)(C)c1ccc(C(CC(=O)O)N2C(=O)c3ccccc3C2=O)cc1 (stereo not shown),9.03
9,COc1ccccc1C(=O)N/C(=C/C=C/c1ccccc1)C(=O)NCc1ccccc1,30.1
10,COc1ccccc1NC(=O)c1c(NC(=O)CN(C)C)sc2c1CCC(C(C)(C)C)C2 (stereo not shown),-5.27
11,CC1CCc2c(sc(NC(=O)C3CC3c3ccccc3)c2C#N)C1 (stereo not shown),-0.522
12,COc1cc(Br)cc(/C=C2\SC(c3ccccc3)=NC2=O)c1O,38.6
13,COc1ccc(C2=NN(c3ccc(Cl)c(Cl)c3)C(c3ccc(OC)cc3)C2)cc1 (stereo not shown),-0.128
14,COc1ccc(/C=C/C(=O)Nc2cccc(C(F)(F)F)c2)cc1,-3.27
15,COc1ccc(C2=NN(CC(=O)NCC3CCCO3)C(=O)CC2)cc1 (stereo not shown),-0.0542
16,CCCCC1CCC(C(=O)Nc2c3c(nn2-c2ccc(F)cc2)CS(=O)(=O)C3)CC1 (stereo not shown),-3.35
17,O=C(Nc1ccc(Br)cc1F)c1ccc(NS(=O)(=O)c2cccc(F)c2)cc1,5.15
18,CCOC(=O)c1cc(C)n(CC2CCC(C(=O)N3CCCC(C)C3)CC2)c1C (stereo not shown),1.65
19,O=C(CCS(=O)(=O)c1cccc2nsnc12)NC(c1ccccc1)c1ccccc1,4.27
20,CCCC1CCC(c2ccc(C(=O)OCC(=O)c3ccc(Br)cc3)cc2)CC1 (stereo not shown),-2.51
21,Cc1ccc2nc3c(O)n(CCCN4CCN(C5CCCCC5)CC4)cnc-3c2c1,-5.36
22,O=C(c1ccco1)N(CCN(C(=O)c1ccco1)c1ccccc1)c1ccccc1,1.37
23,CC(NC(=O)C1CCCN(C(=O)c2cc3sccc3n2C)C1)c1ccccc1 (stereo not shown),-2.84
24,Cc1nc2c(c(C)nn2C(C)(C)C)c(C)c1CCC(=O)NCCCN1CCCC1=O,0.953
25,COc1ccc(S(=O)(=O)NCc2ccccc2)c2ccccc12,2.3

row,Structure (SMILES),% Inhibition @ 10 uM [%]
1,CC1CCC(NCCCN2CCCC2=O)CC1 (stereo not shown),-7.35
2,Cc1cc(C)cc(N(CC(=O)NCCSc2nc3ccccc3s2)S(=O)(=O)c2ccccc2)c1,0.219
3,CC(=O)Nc1ccc(Cc2ccc(NC(C)=O)c(C#N)c2)cc1C#N,4.8
4,Cc1nc2ccc(NC(=O)Nc3cccc4ccccc34)cc2s1,-0.545
5,O=C(Cn1cnc2ccccc2c1=O)c1cccs1,0.528
6,CCCCOC1CS(=O)(=O)CC1OCCCC (stereo not shown),-5.28
7,CCOc1ccc(-c2csc(/C(C#N)=C/c3ccc(Cl)cc3)n2)cc1,-4.21
8,CSc1ccc(C2C(C#N)=C(N)OC3=C2C(=O)CC(C)(C)C3)cc1 (stereo not shown),1.96
9,Oc1nc2ccccc2c2nncn12,-4.76
10,CC(NC(=O)c1cccs1)c1ccccc1 (stereo not shown),0.583
11,CCCCc1ccc(C(=O)Nc2ccc(Cl)c3c2C(=O)c2ccccc2C3=O)cc1,-1.98
12,Cc1ccc(C(=O)Nc2ccc(C)cn2)cc1,-1.61
13,CCCCNc1nc2c(-c3ccc(OC)cc3)nnn2c2ccccc12,2.04
14,c1ccc(-c2cn(-c3ccccc3)c3ncnc(N4CCCCC4)c23)cc1,-2.49
15,COCCCn1c(SCC(=O)N2CC(C)CC(C)C2)nc2c(sc3ccccc32)c1=O (stereo not shown),6.35
16,CCC(C)OC(=O)C1=C(C)NC(=O)CC1c1ccccc1C (stereo not shown),-1.62
17,COc1ccc(NC(=O)CCc2cc(OC)c(OC)c(OC)c2)cn1,1.88
18,COC(=O)CCCNS(=O)(=O)c1ccc([N+](=O)[O-])cc1,-5.33
19,O=C(NC1CCCC1)C(c1ccc(Cl)cc1)N1CCN(C2CCCCC2)CC1 (stereo not shown),-3.01
20,COc1ccc(-c2cn3nc(C)c(C)nc3n2)cc1,2.49
21,CCCOc1ccc(-c2csc3ncn(CCC(C)C)c(=O)c23)cc1,-10.4
22,N#C/C(=C\c1coc2ccccc2c1=O)C(=O)NCc1ccco1,-2.19
23,c1coc(CNC2C3CC4CC(C3)CC2C4)c1 (stereo not shown),-5.59
24,CCOC(=O)N1CCN(C(=O)C2c3cc(OC)c(OC)cc3C(=O)N(C)C2c2ccccc2F)CC1 (stereo not shown),1.07
25,COc1ccccc1CNC(=O)C1CCN(S(=O)(=O)N2CCOCC2)CC1,2.05

row,Structure (SMILES),% Inhibition @ 10 uM [%]
1,COc1ccccc1NC1=C(Cl)C(=O)N(c2cccc(C)c2)C1=O,-3.63
2,CC(C)NC(=O)c1cc2c(=O)n3ccccc3nc2n1C,-1.6
3,O=S(=O)(Nc1ccc(Br)cc1)c1ccc(F)cc1,1.91
4,Cc1ccc(CSC2=C(C#N)C(c3ccccc3)CC(=O)N2)cc1 (stereo not shown),-6.51
5,CCOc1ccc(S(=O)(=O)N(C)Cc2cnn(CC)c2C)cc1,2.08
6,CCOC(=O)N1CCN(C(=O)c2nn(C)c3c2CS(=O)(=O)c2ccccc2-3)CC1,2.62
7,CCOC(=O)c1c(C)[nH]c(C)c1S(=O)(=O)N1CCc2ccccc2C1,-3.26
8,Cc1cccc(CNCc2ccccc2)c1,-8.9
9,COc1ccc(C(C)NC(=O)c2ccc(OCC(C)C)cc2)cc1 (stereo not shown),16.4
10,COCCNC(=O)C1CCN(c2cc(C)nc3c(-c4ccc(Cl)cc4)c(C)nn23)CC1,-1.89
11,COc1ccc(S(=O)(=O)N(CC(=O)Nc2cccc(C(C)=O)c2)c2cccc(Cl)c2)cc1,2.86
12,O=C1C2C3C=CC(C2C(=O)N1c1ccccc1F)C1C(=O)N(c2ccccc2F)C(=O)C31 (stereo not shown),3.1
13,O=C(NC12CC3CC(CC(C3)C1)C2)OCc1ccccc1,1.87
14,CCCNC(=O)c1cc(-c2ccccc2OCC)nc2ccccc12,3.17
15,O=C1CC(c2cccs2)Cc2nc(NCCSc3ccc(Cl)cc3)ncc21 (stereo not shown),1.74
16,COc1cc(C2C(C#N)=C(N)Oc3[nH]nc(C)c32)cc(OC)c1OC (stereo not shown),-0.759
17,CCCCN1C(=O)C(NC(=O)C2CC2)(C(F)(F)F)C2=C1CC(C)(C)CC2=O (stereo not shown),-1.12
18,COC(=O)c1ccc(C2c3c(-c4ccccc4O)n[nH]c3C(=O)N2Cc2ccc(OC)cc2)cc1 (stereo not shown),3.27
19,CCOC(=O)N1CCC(NCCc2cccc(F)c2)CC1,-3.6
20,CC(C)Cn1cc(C(=O)N2CCOCC2)c2c3ccccc3n(C)c2c1=O,-3.12
21,Cc1cc(N2CCOCC2)n2ncnc2n1,-2.79
22,CC(=O)C1=C(O)C(=O)N(CCN2CCOCC2)C1c1ccc(C(C)C)cc1 (stereo not shown),-3.34
23,CCOC(=O)c1c2c(n(C)c1C)C(=O)C(=O)c1ccc(Br)cc1-2,-1.26
24,CCC1CCCCN1S(=O)(=O)c1ccc(F)cc1 (stereo not shown),-3.04
25,O=C(NCC1CCCO1)C1CCCN(S(=O)(=O)c2ccc3[nH]c(-c4ccccc4)nc3c2)C1 (stereo not shown),3.08

# Reference: PMC6919601, “Identification of Plasmodium dipeptidyl aminopeptidase allosteric inhibitors by high throughput screening” (PLoS ONE, 2019)
